Experimental data taken from PubChem BioAssay (Tox21).
Inconclusive results, whose numbers are uncertain, are shown with a selection of clear calls. No potency is given beside an inconclusive call; the fits are too rough. Calls of active or inactive are those of the source. Calls follow the shape of the dose curve; as a rule, active = well fitted cell-killing curve with a large enough effect in the repeat runs; inconclusive = weak or mixed curves; inactive = flat fitted curve, though single readings scatter.

assay: qHTS RealTime-Glo MT Cell Viability Assay in HepG2 cells - 8 hour (AID 1224873); settings: RealTime-Glo luminescence; series mostly up to 76.8 µM; viability change, negative = cytotoxic: at the top concentration; also: nearly all actives have a fitted effect of over 55% in size
Excerpt: National Center for Advancing Translational Sciences [NCATS]
NIH Chemical Genomics Center [NCGC]
U.S. Environmental Protection Agency [EPA]
National Institutes of Environmental Health Sciences [NIEHS]
National Toxicology Program [NTP]
U.S. Food and Drug Administration [FDA]
Measure of cell viability is critical in the cell-base assay. Analysis of cell viability is necessary for the characterization of cell responses to cytotoxic drugs and environmental stress. A RealTime-Glo MT Cell Viability Assay to monitor cell viability in real time of continues cell culture during 40 hours of compound treatment was used to screen Tox21 10K library compounds in HepG2 cells. The RealTime-Glo MT Cell Viability Assay is a nonlytic, homogeneous, bioluminescent method to measure cell viability in real time using a simple, plate-based method. The assay involves adding NanoLuc luciferase and a cell-permeant prosubstrate to cells in culture. Viable cells reduce the proprietary prosubstrate to generate a substrate for NanoLuc luciferase. This substrate diffuses from cells into the surrounding culture medium, where it is rapidly used by the NanoLuc Enzyme to produce a luminescent signal. The signal correlates with the number of viable cells, making the assay well suited for cytotoxicity studies.
Tox21 Assay Protocol Summary:
The mixture of HepG2 cell suspension and reagents were dispensed at 600cells/6 ul/well in 1536-well tissue culture treated black solid bottom plates using a Multidrop dispenser. After the assay plates were incubated at a 37 C/5% CO2 incubator for 5 hours, 23 nL of compounds dissolved in DMSO, positive and negative controls was transferred to the assay plate by a pintool work station. The plates were incubated at 37 C for 40 hours. The luminescence intensity were measured at 0h, 8h, 16h, 24h, 32h and 40h time points using ViewLux plate reader during compound treatment.
% is scaled to controls: 0 for no effect and ±100 for the full control effect; potency is read from the fitted curve at half-maximal effect; tags tell the direction and shape of the fitted curve.

| Compound | Potency | viability change, negative = cytotoxic |
| --- | --- | --- |
| CCCCCC(C)=O | inactive | – |
| CC(=O)OC/C=C(\C)CCC=C(C)C | inactive | – |
| COC(=O)/C=C(\C)CCC=C(C)C | – | inactive: 0.181% |
| CC(=O)OC/C=C(\C)CC/C=C(\C)CCC=C(C)C | inactive | – |
| COc1c2occc2cc2ccc(=O)oc12 | inconclusive [falling, partial curve, poor fit] | – |
| CCC(=O)O[C@]1(C(=O)CCl)[C@@H](C)C[C@H]2[C@@H]3CCC4=CC(=O)C=C[C@]4(C)[C@@]3(F)[C@@H](O)C[C@@]21C | – | inactive: -22.7% [at 35.3 µM] |
| CCC(C(=O)O)c1ccc(N2Cc3ccccc3C2=O)cc1 (stereo not given) | – | inactive: 1.56% [at 35.3 µM] |
| ClCCOCCOCCCl | – | inactive: 4.13% |
| CCCCCCCC(=O)OCC | – | inactive: -17.9% |
| CCOC(=O)C(O)c1ccccc1 (stereo not given) | – | inactive: 8.73% [at 35.3 µM] |
| CC(C)(c1ccc(Oc2ccc(N)cc2)cc1)c1ccc(Oc2ccc(N)cc2)cc1 | inconclusive [falling, single point] | – |
| CNCC[C@@H](Oc1ccccc1C)c1ccccc1 | – | inactive: 1.53% [at 35.3 µM] |
| O=C(O)c1cc(O)c(O)c(O)c1 | inconclusive [falling, partial curve] | – |
| COc1ccccc1OCC(O)COC(N)=O (stereo not given) | – | inactive: 0.606% [at 35.3 µM] |
| CCCCCCCCCCCC(=O)OC[C@@H](O)[C@H]1OC[C@H](OCCO)[C@H]1OCCO | – | inactive: 13.9% |
| CCN(CC)CCNc1ccc(CNC=O)c2sc3ccc(OC)cc3c(=O)c12 | inconclusive [falling, partial curve] | – |
| CC(=O)OCC(=O)[C@H]1CC[C@H]2[C@@H]3CCC4=CC(=O)CC[C@]4(C)[C@H]3CC[C@]12C | – | inactive: -0.616% [at 35.3 µM] |
| O=C(O)Cc1cccc(-c2cc(CCCCCCc3ccc(O[C@H]4O[C@H](CO)[C@@H](O)[C@H](O)[C@@H]4O)c(-c4cccc(CC(=O)O)c4)c3)ccc2O[C@H]2O[C@H](CO)[C@@H](O)[C@H](O)[C@@H]2O)c1 | inconclusive [rising, partial curve, poor fit] | – |
| CN1C(C)(C)CCCC1(C)C | – | inactive: 0.867% [at 35.3 µM] |
| CCN(CC)CCOC(=O)C(c1ccccc1)C1CCCCC1 (stereo not given) | – | inactive: -23% [at 35.3 µM] |

| Compound | Potency | viability change, negative = cytotoxic |
| --- | --- | --- |
| CNCCc1ccccn1 | – | inactive: 3.68% [at 35.3 µM] |
| C=CC(=O)OCCOc1ccccc1 | inconclusive [falling, partial curve, poor fit] | – |
| OC(CN1CCC(Cc2ccc(F)cc2)CC1)c1ccc(Cl)cc1 (stereo not given) | inconclusive [falling, partial curve] | – |
| O=C1c2ccccc2CCc2ccccc21 | inactive | – |
| NC(=O)Cn1c(=O)cc(CCN2CCN(c3nccc4sccc34)CC2)c2ccc(F)cc21 | inconclusive [falling, partial curve] | – |
| CCCn1cnc2c1c(=O)n(CCCCC(C)=O)c(=O)n2C | – | inactive: -0.352% [at 35.3 µM] |
| CCS(=O)(=O)c1ccc(OC)c(C(=O)OC)c1 | – | inactive: 2.23% [at 35.3 µM] |
| Oc1ccc(C2(c3ccc(O)c(C4CCCCC4)c3)CCCCC2)cc1C1CCCCC1 | active: 43.6 µM | – |
| COc1ccc(OC)c(N=Nc2c(O)ccc3ccccc23)c1 | inconclusive [falling, partial curve, poor fit] | – |
| CN(C)C(=O)NC1(c2ccccc2)CCN(CCC[C@]2(c3ccc(Cl)c(Cl)c3)CCCN(C(=O)c3ccccc3)C2)CC1 | – | inactive: -6.85% [at 15.8 µM] |
| CCN(CC)c1ccc(C=O)c(O)c1 | – | inactive: 0.407% |
| CC(C)(O)Cc1ccccc1 | – | inactive: 3.4% |
| c1ccc(Oc2ccccc2)cc1 | inactive | – |
| Cc1ccccc1S(=O)(=O)O | – | inactive: -1.65% |
| CC(C)C[C@H]1C(=O)N2CCC[C@H]2[C@]2(O)O[C@](NC(=O)[C@@H]3C=C4c5cccc6[nH]c(Br)c(c56)C[C@H]4N(C)C3)(C(C)C)C(=O)N12 | active: 13.2 µM | – |
| CCCCCCCCCCCCCCCC(=O)OC(C)C | inactive | – |
| O=C(CO)[C@@H](O)[C@H](O)[C@H](O)CO | – | inactive: 0.72% |
| COC(=O)C1=C(C)NC(C)=C(C(=O)OC(C)C)C1c1cccc2nonc12 (stereo not given) | inconclusive [falling, partial curve] | – |
| CCC(=O)c1ccc(O)cc1 | – | inactive: 5.36% [at 35.3 µM] |
| Cc1oc2c(NC(=O)c3c(Cl)cccc3Cl)cccc2c1C(C)(C)O | inconclusive [falling, partial curve] | – |
